# Measurements published in publication PMC4336329 (PLoS ONE, 2015).
# The whole screen tested about 310,000 compounds, of which about 2,200 (0.71%) showed an effect of 50% or more. The effect is printed as a negative number. Some of the results follow.
# Target: human ether-à-go-go-related gene (hERG) potassium channel (human, UniProt Q12809)
# Experiment: primary screen, population patch clamp on CHO cells stably expressing hERG
# Sequence of human ether-à-go-go-related gene (hERG) potassium channel (Q12809 whole entry, looked up): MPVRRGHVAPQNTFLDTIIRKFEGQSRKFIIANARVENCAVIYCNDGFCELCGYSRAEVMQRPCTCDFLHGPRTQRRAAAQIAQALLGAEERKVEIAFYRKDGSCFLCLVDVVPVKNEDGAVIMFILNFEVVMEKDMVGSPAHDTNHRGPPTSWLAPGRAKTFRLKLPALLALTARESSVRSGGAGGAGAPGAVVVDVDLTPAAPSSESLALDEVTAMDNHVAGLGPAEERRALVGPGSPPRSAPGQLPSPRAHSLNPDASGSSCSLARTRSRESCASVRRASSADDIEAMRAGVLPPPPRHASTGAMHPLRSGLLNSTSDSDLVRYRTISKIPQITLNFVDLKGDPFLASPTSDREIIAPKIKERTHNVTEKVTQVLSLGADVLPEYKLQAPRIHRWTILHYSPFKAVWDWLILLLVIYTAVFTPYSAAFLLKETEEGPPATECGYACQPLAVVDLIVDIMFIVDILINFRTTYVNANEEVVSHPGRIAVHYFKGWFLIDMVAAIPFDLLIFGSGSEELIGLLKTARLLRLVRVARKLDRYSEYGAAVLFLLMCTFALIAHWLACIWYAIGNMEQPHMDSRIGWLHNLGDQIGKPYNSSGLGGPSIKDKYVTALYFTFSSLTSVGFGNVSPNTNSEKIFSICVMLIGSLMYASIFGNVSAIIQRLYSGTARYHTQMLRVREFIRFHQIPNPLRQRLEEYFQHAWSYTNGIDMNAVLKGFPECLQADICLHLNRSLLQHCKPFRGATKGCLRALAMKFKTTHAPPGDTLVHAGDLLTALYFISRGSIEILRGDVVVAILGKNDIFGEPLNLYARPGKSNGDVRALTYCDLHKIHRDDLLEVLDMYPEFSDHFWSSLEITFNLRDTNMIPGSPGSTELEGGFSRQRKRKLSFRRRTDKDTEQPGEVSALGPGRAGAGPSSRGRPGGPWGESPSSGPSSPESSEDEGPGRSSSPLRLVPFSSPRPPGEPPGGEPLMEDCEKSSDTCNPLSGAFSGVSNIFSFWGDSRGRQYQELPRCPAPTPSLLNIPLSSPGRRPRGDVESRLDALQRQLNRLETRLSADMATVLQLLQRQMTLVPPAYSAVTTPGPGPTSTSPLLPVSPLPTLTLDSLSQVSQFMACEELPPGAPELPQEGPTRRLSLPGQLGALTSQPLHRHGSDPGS
row,SMILES,"hERG current change (%, negative = inhibition) at 1uM [%]"
1,CCCCCCOC(=O)Cc1c(C)nc(-c2ccccc2)[nH]c1=O,3.98
2,Cc1cc(C)cc(NC(=S)N2CCC(NC(=O)c3ccc(F)cc3)CC2)c1,5.31
3,CCOC(=O)c1cc(C(=O)Nc2cccc(C)c2)nn1C,15.9
4,O=C(COC(=O)Cc1ccsc1)Nc1ccc(Cl)c(S(=O)(=O)N2CCOCC2)c1,-2.15
5,CC(NS(=O)(=O)c1ccc(Br)cc1)C(=O)NC1CCCCCC1 (stereo not drawn),3.02
6,Cc1cc(C)nc(Nc2ccccc2F)n1.Cl,9.3
7,Cc1cccn2c(=O)c3cc(S(=O)(=O)c4ccc(Br)cc4)c(=N)n(C4CCCCC4)c3nc12,26
8,C/C(=N/NS(=O)(=O)c1ccc(Cl)cc1)c1ccncc1,11.9
9,O=C(Nc1ccc(Cc2ccncc2)cc1)C1CC1,9.03
10,Cc1ccc([C@H]2C(C#N)=C(N)Oc3cc(C)oc(=O)c32)o1,12.8
11,O=C(c1ccc(NC2=NC3CS(=O)(=O)CC3S2)cc1)N1CCc2ccccc2C1 (stereo not drawn),14.2
12,Cc1ccc2c(ccc(=S)n2C)c1,12.3
13,N=c1c2c(ncn1Cc1ccco1)Oc1c(ccc3ccccc13)C2c1ccccc1 (stereo not drawn),1.59
14,O=C(CC1OC(=O)c2ccccc21)NC1CCCCC1 (stereo not drawn),14.1
15,Cc1ccc(S(=O)(=O)N2CCCC(C(=O)Nc3ccc(C(=O)O)cc3)C2)cc1Cl (stereo not drawn),-15.7
16,COc1ccc(C)cc1NC(=O)CCc1c(C)nn(-c2ccc(N3CCCCC3)nn2)c1C,7.22
17,Cc1cccc(C)c1NC(=O)COc1cccc(/C=N/NC(=O)C(=O)NCc2ccccc2)c1,1.74
18,COC(=O)c1cc2c(-c3ccccc3)cc3ccccn3c-2c1C(=O)OC,10.4
19,Cc1noc(C)c1CSc1ncnc2sc3c(c12)CCC(C)C3 (stereo not drawn),6.66

row,SMILES,"hERG current change (%, negative = inhibition) at 1uM [%]"
1,COc1ccc(OC)c(/C=C/c2nc3ccccc3[nH]c2=O)c1,13.2
2,CCCN1C(=O)C(O)(CC(=O)c2cccc(OC)c2)c2ccccc21 (stereo not drawn),6.79
3,O=C(CSc1ccccc1C(=O)O)NCc1ccccc1,12.9
4,Cc1c(NC(=O)COc2ccc3ccccc3c2)c(=O)n(-c2ccccc2)n1C,-6.25
5,C=CCn1c(SCC(=O)O)nnc1-c1cccs1,9.03
6,O=C1C=C(Nc2ccc(Cl)cc2)CC(c2ccco2)C1 (stereo not drawn),4.78
7,O=C(CCCOc1ccc(Cl)cc1)NC1CCCCC1,12.5
8,COc1ccc(C(CNC(=O)c2cc(F)c(F)c(F)c2F)N2CCOCC2)cc1 (stereo not drawn),8.2
9,CC(=O)c1cccc(S(=O)(=O)NC2CCSc3ccccc32)c1 (stereo not drawn),7.95
10,CC(C)(C)C(=O)Nc1nc(-c2ccc3c(c2)OCO3)cs1,2.21
11,Cc1ccc(SC[C@H](C)CN2CC[C@H](NC(=O)OCc3ccccc3)CCC2=O)cc1,-8.38
12,CCN(CC)CC(=O)Nc1ccc2c(c1)N(C(=O)CN(CC)CC)c1ccccc1CC2.Cl.O,15.9
13,Cc1ccsc1/C=N/NC(=S)NCCc1ccccc1,7.99
14,CC(=O)c1c(C)[nH]c(C(=O)CSc2nnc(C)s2)c1C,1.75
15,COCCNC(=O)c1onc(CSc2ccc(F)c(F)c2)c1C(=O)O,6.16
16,CC(C)CN(C(=O)Cn1c(C(F)(F)F)nc2ccccc21)C1CCS(=O)(=O)C1 (stereo not drawn),2.67
17,CCOc1cc2[nH]c(=S)n(CCN3CCCCC3CC)c(=O)c2cc1OCC (stereo not drawn),-19.5
18,CN(Cc1ccc(F)cc1)C(=O)c1ccc(NS(=O)(=O)c2ccc3[nH]c(=O)[nH]c3c2)cc1,12.8
19,C(=N\Nc1nc(-c2ccccc2)cs1)/c1ccncc1,9.82

row,SMILES,"hERG current change (%, negative = inhibition) at 1uM [%]"
1,CSc1ccc(CCNC(=O)CCc2nnc3ccc(N4CCC5(CC4)OCCO5)nn23)cc1,18
2,O=C(NCc1ccccn1)Nc1ccc(Br)cc1Cl,15.5
3,Cc1cc(C(=O)CSc2nnc(-c3ccco3)o2)c(C)n1Cc1ccco1,19.6
4,CC1CCCN(C(=O)c2ccc3c(c2)C(=O)N(CCC2=CCCCC2)C3=O)C1 (stereo not drawn),4.73
5,Cc1cc(C(=O)N2CCc3c([nH]c4ccccc34)C2c2cccc(Cl)c2)nn1C (stereo not drawn),15.5
6,CCOC(=O)c1nnn(-c2ccc([N+](=O)[O-])cc2[N+](=O)[O-])c1C,11.6
7,O=C(NCc1cccs1)C1CCN(S(=O)(=O)c2cccc([N+](=O)[O-])c2)CC1,0.192
8,O=C(CNCc1ccccc1Cl)Nc1ccccc1N1CCCCC1.O=C(O)C(=O)O,18
9,CN(C(=O)c1c(Cl)nc2sccn12)C1CCCCC1,-2.92
10,Cc1nnc(NC(=O)C(C)Sc2nncn2C)s1 (stereo not drawn),15.3
11,Cc1ccc(O)c(C(=O)c2cnc3c(c2)COc2ccccc2-3)c1,2.56
12,CCCCCC(=O)Nc1ccc(Cl)cn1,15.4
13,CC12CCC(=O)N1C(C(=O)Nc1cc(Cl)ccc1N1CCCC1)CS2 (stereo not drawn),9.47
14,CC(C)(C)NC(=O)Cn1nnnc1-c1nonc1N,-5.68
15,COc1cccc([C@@H]2Oc3ccc(OC)cc3C(=O)[C@H]2OC(=O)Nc2cc(OC)c(OC)c(OC)c2)c1,12.5
16,O=C(NCCCN1CCOCC1)c1ccc(Cl)cc1Cl,7.26
17,CC(C)C(=O)N1CCN(c2ccccc2NC(=O)c2ccc(C#N)cc2F)CC1,-9.51
18,CC(C)Cn1c(N)c(C(=O)COC(=O)c2c(O)c(Cl)cc(Cl)c2Cl)c(=O)n(C)c1=O,-2.42
19,C[C@@H](C(=O)N1CCNCC1)n1cc(CCC(=O)O)nn1.Cl,19.8
